The supplement of paper PMC4967469
A lower IC50 marks a more sensitive line; a fit beyond the top or the lowest dose is shown as a bound at that dose. AUC is the area under the same curve over the 256-fold range up to the top dose, as a fraction; it is 1 without any effect and falls as sensitivity rises. Any top dose called inferred was derived from the fitted curves, not read from the paper. For some of these results: An entry number marks a drug with two screens in the source, which often give different values.

Experiments:
Experiment in all cases: Viability of human cancer cell lines after 72 h of drug (GDSC screen)
AZD6482 = compound: Cc1cc([C@@H](C)Nc2ccccc2C(=O)O)c2nc(N3CCOCC3)cc(=O)n2c1 [AZD6482]
Procedure: (§1)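 Human cancer cell lines in 384-well plates, medium with 10% serum, drug for 72 h over a 256-fold dose range (nine 2-fold or five 4-fold steps up to the top dose). Adherent lines were fixed and stained with the nucleic acid dye Syto60, suspension lines read with resazurin; signal relative to control wells, capped at 0 and 100%. One two-parameter sigmoid per drug and line, fitted in a mixed model over all curves with the slope shared within a line.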

BMN-673 = compound: Cn1ncnc1[C@H]1c2n[nH]c(=O)c3cc(F)cc(c23)N[C@@H]1c1ccc(F)cc1 [BMN-673]; conditions: top dose 10 µM; top dose inferred
Procedure: as §1

MLN4924 = compound: NS(=O)(=O)OC[C@@H]1C[C@@H](n2ccc3c(N[C@H]4CCc5ccccc54)ncnc32)C[C@@H]1O [MLN4924]; conditions: top dose 1 µM; top dose inferred
Procedure: as §1

[1] = top dose 5 µM, screen: GDSC drug entry 1066, top dose inferred
[2] = top dose 5.12 µM, screen: GDSC drug entry 156

Cell Line | AUC (AZD6482; [1]) | IC50 (AZD6482; [1]) | AUC (BMN-673) | IC50 (BMN-673) | AUC (MLN4924) | IC50 (MLN4924) | AUC (AZD6482; [2]) | IC50 (AZD6482; [2])
SK-MEL-31 (melanoma, adherent) | 0.966 | > 5 µM | 0.977 | > 10 µM | 0.946 | > 1 µM |  | 
SK-N-FI (neuroblastoma, adherent) | 0.962 | > 5 µM | 0.977 | > 10 µM | 0.973 | > 1 µM | 0.989 | > 5.12 µM
SK-OV-3 (ovary, adherent) | 0.847 | > 5 µM | 0.799 | 6.27 µM | 0.924 | > 1 µM | 0.663 | 1.02 µM
SK-UT-1 (soft tissue, adherent) | 0.932 | > 5 µM | 0.653 | 1.59 µM | 0.562 | 0.0906 µM | 0.805 | 2.32 µM
SKG-IIIa (cervix, adherent) | 0.921 | > 5 µM | 0.941 | > 10 µM | 0.916 | > 1 µM | 0.947 | > 5.12 µM
SKN-3 (head and neck, adherent) | 0.889 | > 5 µM | 0.835 | 8.3 µM | 0.703 | 0.26 µM | 0.95 | > 5.12 µM
SN12C (kidney, adherent) | 0.85 | 4.55 µM | 0.796 | 5.33 µM | 0.908 | > 1 µM | 0.967 | > 5.12 µM
SNU-61 (large intestine, adherent) | 0.963 | > 5 µM | 0.979 | > 10 µM | 0.976 | > 1 µM |  | 
SNU-182 (liver, adherent) | 0.958 | > 5 µM | 0.892 | > 10 µM | 0.815 | 0.58 µM | 0.937 | > 5.12 µM
SNU-398 (liver, adherent) | 0.985 | > 5 µM | 0.928 | > 10 µM | 0.939 | > 1 µM | 0.884 | > 5.12 µM
SNU-423 (liver, adherent) | 0.889 | > 5 µM | 0.89 | > 10 µM | 0.937 | > 1 µM | 0.678 | 1.1 µM
SNU-449 (liver, adherent) | 0.932 | > 5 µM | 0.949 | > 10 µM | 0.985 | > 1 µM | 0.856 | 4.77 µM
ST486 (Burkitt lymphoma, suspension) | 0.98 | > 5 µM | 0.989 | > 10 µM | 0.943 | > 1 µM | 0.929 | > 5.12 µM
SU-DHL-4 (B-cell lymphoma, suspension) | 0.971 | > 5 µM | 0.997 | > 10 µM | 0.98 | > 1 µM | 0.853 | 2.38 µM
SU-DHL-5 (B-cell lymphoma, suspension) | 0.568 | 0.457 µM | 0.524 | 0.713 µM | 0.67 | 0.162 µM | 0.476 | 0.28 µM
SU-DHL-16 (B-cell lymphoma, suspension) | 0.937 | 4.48 µM | 0.996 | > 10 µM | 0.675 | 0.166 µM | 0.936 | 4.56 µM
